Experimental data as given in the RNAGym collection of RNA variant scans (doi:10.7554/elife.90254).
The source gives no read counts; variants with many changes may rest on few reads.

B1: LINE1-mini (parent)
chain: GGCAGAGCUCAACACAGCGUGGCAAAGUGGCUGUGGCUAGACUGCC

Variants of: B1
Experiment: self-cleavage, relative activity (ratio to wild type); higher = more cleavage; in vitro, sequencing; the parent is a self-cleaving ribozyme

| Variant | self-cleavage |
| --- | --- |
| A26G G29A G40U | 0.04 |
| A6C G27C G40U G44A | 0.51 |
| G2A G36C C45A | 0.07 |
| A4U A6U A14G C23U U28C G30U A39U | 0.01 |
| G2A A4U G7C G22U | 1.01 |
| G7U C23A A25G C37U A39C | 0.01 |
| G5U U9A C10G C13U G40U C45U | 0.01 |
| G5U G7U A11C C15U A16G U34C C42G | 0.01 |
| C8A C18G G22U C45A | 0.03 |
| G5A A11G G19U A26C C37G A41G | 0.01 |
| C10A G40A C45G | 0.02 |
| C3U G19A G22U C42A | 0.1 |
| C15G G22C U43G G44U | 0.01 |
| C18G U20G C37A | 0.07 |
| G7C U9C C13G G29A | 0.03 |
| G5C A6G G19A G30U C31U | 0.08 |
| U9A G40U U43C | 0.05 |
| A6U U9A C37U | 0.05 |
| C15G G19A C37G | 0.01 |
| A25C G27U G33U A39G G44A | 0.01 |
| G1C A14C G33A | 0.02 |
| C13G G19A G29C G40U C42G | 0.02 |
| C8G G19A G40U | 0.13 |
| C10A A24C A25U A41C C42G | 0 |

| Variant | self-cleavage |
| --- | --- |
| C3G C23G A25U U34A G36U C45G | 0.09 |
| A24U G30A G44U C45G C46U | 0.12 |
| G7U C8A U9A G17U U32G G44A | 0.26 |
| A6G G33A A41U | 0.03 |
| G2U C15U C18G G21U C23G | 0.02 |
| C15G G27A C37G U43A | 0 |
| G1U G17C G35C A41C G44C | 0.02 |
| A25C C31U U32C | 0.06 |
| C10G U32A C42U | 0 |
| G2A U9G C10A C37G C42A | 0.01 |
| C10U C18G A41C G44C | 0.03 |
| A25U C31A G36U | 0.02 |
| G7U U9C C15U A16C C23U | 0.08 |
| G1A U9C G19A C23A A24U C31U U34C | 0.02 |
| C10U C45A C46A | 0.06 |
| G7C C37G A41G | 0.02 |
| C3U A11G A39U | 0.03 |
| G2C C3G C23G | 0.09 |
| G1A G2U A16G C18U A26G G36C A41C | 0.01 |
| G1C G7C C23A G33U U43A G44C | 0.03 |
| G2U A4G G29C | 0.04 |
| A6G C23G A26C C37U | 0.02 |
| A25G G40U C45U | 0.09 |
| U20G G30U G35U G40U | 0 |

| Variant | self-cleavage |
| --- | --- |
| G5U G21C U38C G40U | 0.03 |
| A12U G29A C37A | 0.05 |
| C23A G27C C37U | 0.03 |
| G7U U9C C13A G36U G44C C45U | 0 |
| A4G C18U G19A A41U U43C | 0.33 |
| A4C C10A A16U G19U G30C U32A G33U G35A G44A | 0.04 |
| A16U G21A U32C C46G | 0.11 |
| A6U U9A C10U A14G | 0.01 |
| G2U A16C G21A G29C C37A | 0.03 |
| A4C G19U C23U A25C U28C | 0.03 |
| G5C G7U G36U | 0.26 |
| C8G C15U G17U | 0.02 |
| G2A G21U C31A C37G G44A | 0.02 |
| G7C A11U G27A G29U | 0 |
| A14U G19A U32G U38C | 0 |
| C3G U20C A39G | 0.34 |
| C15U G17A A26U U28A | 0.18 |
| G22U G30A U38C A41C | 0.03 |
| C3A G17C G44U | 1.41 |
| A11G A41U G44A | 0.01 |
| G2A G17C G21C C23U C45U | 0.13 |
| A6U A24G G36A | 0.25 |
| A6G C13A C31A C45U | 0.04 |
| G19U U32G G40U | 0.03 |

| Variant | self-cleavage |
| --- | --- |
| C10U G19U G35C | 0.04 |
| G2U A6C G27C | 0.03 |
| G7C C15G A41G | 0.02 |
| A26C C31U A41C | 0.06 |
| C8U A14C G22C | 0.04 |
| A4C A11C C18G G22U C31U G40U | 0 |
| C31A C37G G44A | 0.01 |
| A16C C18G C37A | 0.02 |
| C8A C23G C42U | 0.16 |
| C10A G35C G36C U38C | 0 |
| A24U G40A C45U | 0.07 |
| C8U C15G G21U | 0.14 |
| G2C A6G A11C | 0.01 |
| G33U U43C C46G | 0.06 |
| G5U C23U G40U | 0.03 |
| G7C G17U C18A A24G C31G | 0.06 |
| G7C A16U G17C | 0.05 |
| G5C U20C G29A | 0.03 |
| G2U C15A C23U | 0.13 |
| U20G G22U G33C | 0.03 |
| C3A U34A A41C | 0.07 |
| G2U A4U A16C G27A U43A | 0.03 |
| G17U G35U C42A | 0.03 |
| G19A G22U G44C | 0.58 |

| Variant | self-cleavage |
| --- | --- |
| G1C C18G A24G G44U C46A | 0.01 |
| G19A G33A C42U | 0.05 |
| G7U U9A A25C C45U | 0.07 |
| A4C U32C G35A A39U | 0.05 |
| C8U A12G A24U G29C | 0.01 |
| G17U C18A G27U G40U | 0.12 |
| G5A A6G U9A U34G | 0.07 |
| C10G C23G G29A C31A | 0.15 |
| U9C C23A A24U C37G | 0 |
| C15U A39U G40C G44U C45A | 0.03 |
| C13G G19A G21U U43C | 0.02 |
| G1A C8U A25U U32A | 0.28 |
| A16G G19A U28C | 0.6 |
| C15A U20G G44C | 0 |
| C8G C31G U34G U38C | 0.02 |
| C10A A14C C23U G35U | 0 |
| A14G G30U G40A | 0.15 |
| C15G A25U A41C C42A G44C C45A | 0.01 |
| C3A A6C C18G G40A G44A | 0.06 |
| G17U C23G A39U | 0.07 |
| G21U A24U A39U G40C | 0.04 |
| C13U U20C G35U A39C | 2.9 |
| C18A U34G U38G | 0.03 |
| U9G G19C A26U C31A | 0.21 |

| Variant | self-cleavage |
| --- | --- |
| G7U C18U C37G | 0.03 |
| C13U G35C G44U C45A | 0.08 |
| C3U C10A C23G G30U | 0.04 |
| C3G U32C U34A | 0.08 |
| G1C C10A G22C C37U | 0 |
| U20A G22U C37A C46A | 0.07 |
| G29C U32G A39U C42A | 0.04 |
| U20A G30U G36U C37U G40A | 0.07 |
| C3G A6U G22U G36A A41C C46A | 1.24 |
| G21C U28C U38G | 0.01 |
| G2U A11U A24U A25G G36U U38G C42A | 0 |
| G1A C8A G27C G30U | 0.3 |
| C3U C8U C45G C46U | 0.74 |
| G5U G17A G21A G40U | 0.06 |
| G1C U9C G27U G30A | 0.02 |
| G5U C10U C15A C23A C31A G36U | 0.06 |
| C3G G17C A25U | 0.06 |
| G5A C13U A41U | 0.08 |
| A14C U20C G21A G22U A24U | 0.06 |
| G2C U34C U38C G40C A41G U43A | 0.14 |
| G2U G19A U32G | 0.01 |
| G5A G17U C45A | 0.04 |
| A16C G35U C37A A39C C45U | 0 |
| C8U C15U G17A G33A | 1.46 |

| Variant | self-cleavage |
| --- | --- |
| C18G U38C G44C | 0.04 |
| A12G A16C G27C G44U | 0.1 |
| A4U C8U A11C A14G G44C | 0.03 |
| C3A C8A A12U C18A U28A | 0.27 |
| C13G C18U G33U G40U U43C | 0.03 |
| C3A A16C A26U | 0.06 |
| A4G C10G G21C G30C | 0.12 |
| C18U C23G U34G | 0.05 |
| G1C G17U C23G A24G G30C A39C U43A C45U | 0 |
| U9A U28G C37A | 0.06 |
| A12C A14G A26G | 0.01 |
| G2U G27C G35A | 0.07 |
| G1C G2A A6G C10G | 0 |
| G2U C37U A39C G44A | 0.01 |
| G5C U28C G40C | 0.05 |
| G5U C15U G30A | 0.15 |
| A11G C13A C15U A16C A26G G30A G33A C46G | 0.02 |
| U9A C31A G35U A41G | 0.01 |
| C15U U20C A25C C37U | 0.05 |
| C8A G17C A26U G29U G36U | 0.25 |
| U20G G30C G35C A41U | 0.02 |
| G5A C8A A16C G33A G35C G40C | 0.01 |
| G7U C37A C42U | 0.03 |
